For 112 variants, self-cleavage results are on record in the RNAGym collection of RNA variant scans (doi:10.7554/elife.90254).

The source gives no read counts; variants with many changes may rest on few reads.

B1: LINE1-mini (parent)
chain: GGCAGAGCUCAACACAGCGUGGCAAAGUGGCUGUGGCUAGACUGCC

The variants in this data set derive from B1. Briefly: self-cleavage, relative activity (ratio to wild type); higher = more cleavage; in vitro, sequencing; the parent is a self-cleaving ribozyme.
GGCAGAGCUCAACACAUCGGGGCAAAGAGGCUGUGGCGAGACUGCC: the self-cleavage was 0.02.
Regarding GGCAGAGCUCAACACAUUGUGGCAAACUGGCUGUGGCUAGACUGCC, the self-cleavage was determined as 0.05.
In the case of GGCAGAGCUCAACACAGAGUAGCGAAGUGGCUGUGGCUGGACUGCC, the self-cleavage was found to be 0.09.
Regarding GGCAGAGCUCAACACAGAAUGGCAAAGUGGCUGUGGUUACACUGCC, the self-cleavage turned out to be 0.1.
With GGCAGAGCUCAACACAGAGUGGGUAAGUGGAUGUGGCUAUACUGCC, the self-cleavage was 0.
As for GGCAGAGCUCAACACAUCCUGGCAAAGUGGCUGUGGCAAGACUGCC, the self-cleavage turned out to be 0.34.
Under GGCAGAGCUCAACACAGAUUGGCCAAGUGGCUGUGGCGAGACUGCC stands 0.02; under GGCAGAGCUCAACACAGAGUGGCGAAGUGUCUGUGGCUAGACUGGC, 0.05.
Turning to GGCAGAGCUCAACACAUAGUGGUAAAGUGGCUGUGGCUAGACUGCC, the self-cleavage amounted to 0.02.
On to GGCAGAGCUCAACACAUAGUGGGAAAGUGGCUGUGGCUAGACUGCC, for which the self-cleavage is 0.08.
On to GGCAGAGCUCAACACAUUCUGGCAAAGUGGCCGUGGCUAGACUGCC, for which the self-cleavage amounted to 0.08.
Under GGCAGAGCUCAACACAUCGUGGCAAAGUAGCUGUGGCUUGACUGCA stands 0.03.
As to GGCAGAGCUCAACACAGAAUGGCAAAGUGCCUGUGGCUAGACUGCC, the self-cleavage was determined as 0.58.
Regarding GGCAGAGCUCAACACAUCGUCGCAAAGUGCCUGUGGCUAGACUGCC, the self-cleavage was found to be 0.21.
GGCAGAGCUCAACACAGAGUGGCAACGUGGUUGUGGUUAGACUGCA: the self-cleavage turned out to be 0.04.
With GGCAGAGCUCAACACAUCGUGGCAAAGUGGCUGGGGCUAUAUUGCC, the self-cleavage worked out at 0.03.
For GGCAGAGCUCAACACAGAGUGGCAAGCUGGCUGUGGCUGGACUGCC the value was 0.03.
GGCAGAGCUCAACACAUCGUGGCAAAGUGGCUGUGGCUAUGCUGCC: the self-cleavage turned out to be 0.12.
As to GGCAGAGCUCAACACAUCGUGACAAAGUGGCUGUGGCUAUACUGCC, the self-cleavage stood at 0.06.
As for GGCAGAGCUCAACACAUCGUGGCAAAGGGGCUGUGGCUAUAAUGCC, the self-cleavage turned out to be 0.01.
Take GGCAGAGCUCAACACAGAGUGGCGAAGUGACUGUGGCUAGACUGCC: the self-cleavage was found to be 0.87.
GGCAGAGCUCAACACAGAGUGUCAAAGUGGUUGUGGCUUGACUGCC: the self-cleavage amounted to 0.04.
On to GGCAGAGCUCAACACAUCGUGGCAAAGUGGCUGGGGCUAGACUACC, for which the self-cleavage came to 0.01.
Take GGCAGAGCUCAACACAUCGUGGCAAAGUGGCUCUGGCUAGACUGAC: the self-cleavage was determined as 0.02.
For GGCAGAGCUCAACACAUCGUCGCAAAGCGGCUGUGUCUAGACUGCC, the self-cleavage is 0.05.
For GGCAGAGCUCAACACAUCGUGGGAAAGUGGCUGUGGCUAGGCCGCC, the self-cleavage is 0.01.
Turning to GGCAGAGCUCAACACAGAGUGGCAUAGUGGCUGUGCCUAGACGGCC, the self-cleavage is 0.
With GGCAGAGCUCAACACAUCGACGCAAAGUGGCUGUGGCUAGACUGCG, the self-cleavage was determined as 0.35.
Under GGCAGAGCUCAACACAGAGUGGCAUAGUGGCUGUGGCUAGACCGCC stands 0.02; under GGCAGAGCUCAACACAGAGUGGGAAAGUGGCUGUGGCUAGACAGCC, 0.02.
For GGCAGAGCUCAACACAUCGUGGCAAAGUGGCUGUGGCUAUACUGCA the value was 0.03.
For the variant GGCAGAGCUCAACACAUCGUGGUAAAGUGGUUGUGGCUAGACUGCC, the self-cleavage came out at 0.01.
Under GGCAGAGCUCAACACAGAGUGGUAAGGUGGCUGUGGCUAGACUGCA stands 0.04; under GGCAGAGCUCAACACAUCGUCGGAAAGUAGCUGUGGCUAGACUGGC, 0.14.
In the case of GGCAGAGCUCAACACAGAGUGGCAAAGUGGUUAUCGCUAGACUGCC, the self-cleavage was determined as 0.1.
For the variant GGCAGAGCUCAACACAUCGUGGCAAAGUGGCAGUGGGUAGACUGCC, the self-cleavage amounted to 0.06.
On to GGCAGAGCUCAACACAUCGUGGCAAAGUGGCAGUGGAUAGACUGCC, for which the self-cleavage came out at 0.03.
Turning to GGCAGAGCUCAACACAUCGUGGCAAAGUGGCUGUAGCUAGACAGCC, the self-cleavage is 0.02.
On to GGCAGAGCUCAACACAUCUUUGCUAUGUGGCUGUGGCUAAACUGCU, for which the self-cleavage was found to be 0.03.
Regarding GGCAGAGCUCAACACAUCGUGCCAAAUUGACUGUGGCUAGACUGCC, the self-cleavage was 0.92.
As to GGCAGAGCUCAACACAUCAUGGCAAAGUGGCUGUGGCUAGCCUGCC, the self-cleavage turned out to be 0.02.
For GGCAGAGCUCAACACAUCAUGGCAAAGUGACUGUGGCUAGACUGCC the value was 2.07; for GGCAGAGCUCAACACAUCGUUGCAAAGUGGCUGUGGCUAGACUUCC, 0.03.
Take GGCAGAGCUCAACACAUCGUAGCAAAGUGGCUGUGGCUACACCGCC: the self-cleavage came out at 0.05.
For the variant GGCAGAGCUCAACACAUCGUGGAAAAGUGGAUGUGGCGAGACUGCC, the self-cleavage worked out at 0.
In the case of GGCAGAGCUCAACACAUCGUAGCAAAGUGGCUGUGGCCAGACUGCC, the self-cleavage worked out at 0.27.
On to GGCAGAGCUCAACACAGAGUGCCAAAGUGGCUGUGGCUACACUGCC, for which the self-cleavage was 0.07.
As to GGCAGAGCUCAACACAGAGUGGGAAAGUGGCUGCGGCUAGACCGCC, the self-cleavage worked out at 0.02.
Regarding GGCAGAGCUCAACACAUAGUGGAAAAGUGAUUGUGGCUAGUCUUCC, the self-cleavage worked out at 0.02.
Turning to GGCAGAGCUCAACACAGAGUAGCAAAGUGGCUGUGGCUAAACUGCA, the self-cleavage amounted to 0.01.
Under GGCAGAGCUCAACACAUCCUGGCUAAGUGGGUGUGGCUAGACUGCC stands 0.16; under GGCAGAGCUCAACACAGACUGGCAGAGUGGCUGUGGCUAGACUCCC, 0.25; under GGCAGAGCUCAACACAGAGUGGAAAAGUGGCGGUGGCUUGACUGCC, 0.03.
For GGCAGAGCUCAACACAUCGUGGCAAAGUGGCUGCGGCUGGUCCGCC the value was 0.01; for GGCAGAGCUCAACACAGAGUCGCAAAGUGGCUGUAGCUAGACUGGC, 0.
With GGCAGAGCUCAACACAGAGUGGCAACGUGACUGUGGCUAGACUGCC, the self-cleavage stood at 0.17.
Under GGCAGAGCUCAACACAUCGUGGCAAAAUGGCUGCGGAUAGACUUCC stands 0.03; under GGCAGAGCUCAACACAGAGUGGCAGAGUGGCUGUGGCUAGACUGCU, 0.04; under GGCAGAGCUCAACACAUCGUAGCAAAGGGGAUGUGUCUAGACUGCC, 0.02.
For GGCAGAGCUCAACACAGAGUGGCGAAGUCGCUGUGGCUAGACUGCC the value was 1.26; for GGCAGAGCUCAACACAUCGUGUCUAAGUGGCUGUGUCUAGACUGCC, 0.04; for GGCAGAGCUCAACACAGAGUGGUAAAGCGGCUGUGGCUAGACUUCC, 0.02.
Take GGCAGAGCUCAACACAGAGUGGCAAAGUGGCUGUGGGUAGAUUGCC: the self-cleavage is 0.02.
Turning to GGCAGAGCUCAACACAUUGUGGCAAAGUGGCUAUGGCUAGACUGCC, the self-cleavage stood at 0.03.
GGCAGAGCUCAACACAUCGUGACAAAGUGGCAAUGGCUAGACAGCC: the self-cleavage was 0.01.
GGCAGAGCUCAACACAUCGCGGCGAAUUGGCUGUGGCUAGCCUGCC: the self-cleavage turned out to be 0.06.
As to GGCAGAGCUCAACACAUCGAGGCAAAUUGGCUGUGGCUAGACUGGC, the self-cleavage was found to be 0.08.
For GGCAGAGCUCAACACAUCGUGGCAAAGUGGGUGUGGCUAGACUGAC the value was 0.54; for GGCAGAGCUCAACACAUAGGGGCUAAGUGGCUGUGGCUAGACUGCC, 0.05.
Take GGCAGAGCUCAACACAGAGUGGCCAAGUGGCCGUGGCUAGACUGCC: the self-cleavage stood at 0.09.
As for GGCAGAGCUCAACACAUGGUGGCAAAGUGGCUGUGGCUAGGCUGCC, the self-cleavage was found to be 0.02.
Consider GGCAGAGCUCAACACAGAGUGGCAGCGUGGCCGUGGCUAGACUCAC, for which the self-cleavage was determined as 0.01.
On to GGCAGAGCUCAACACAUCGUAUCAACGUGGCUGUGCCUAGACUGCC, for which the self-cleavage is 0.01.
Under GGCAGAGCUCAACACAGACUGGCAAAGUGGCUGUGCCUAGACUGCC stands 0.04.
Under GGCAGAGCUCAACACAUCGUGGCAAAGUGUCUGUGGCUAGACUCCC stands 0.01; under GGCAGAGCUCAACACAGAGUGGCAUAGUGGCUGUGGCUAGACUGUC, 0.38.
Regarding GGCAGAGCUCAACACAGAGUGGCAAAGUGGCUGUGGUUAUACUGCC, the self-cleavage stood at 0.03.
Take GGCAGAGCUCAACACAUCGUGGCAAAGUGGCUGUGGCUAAACUGCG: the self-cleavage worked out at 0.01.
Regarding GGCAGAGCUCAACACAGAUUGGCAAAUUGGGUGUGGCUAGACUGAC, the self-cleavage was 0.03.
For the variant GGCAGAGCUCAACACAUCCAGGCAAAGUGGCUGUUGCUAGACUGGC, the self-cleavage was 0.01.
For GGCAGAGCUCAACACAGAGUCGAAAAGUGGCUGUGGCUUGACUGCC the value was 1.44; for GGCAGAGCUCAACACAGAGUGGUAAAGGGGCUGUGGCUAGACUGCC, 0.02; for GGCAGAGCUCAACACAGAUUCGGAAAGUGGCUGUGGCUAGACUGCC, 0.53.
Regarding GGCAGAGCUCAACACAUUGUGGCAAAGUGGCUGUGGCUAUACUGCC, the self-cleavage worked out at 0.01.
For GGCAGAGCUCAACACAUCGUGGCAAAGUGGCUGUGGUUAGACUGCU the value was 0.05; for GGCAGAGCUCAACACAUCGUGGCAAAGUGGUUGUGGCUAGUCUGCC, 0.04; for GGCAGAGCUCAACACAUCGUGGCAAAGUGGCUGUGACUAGCCUGCC, 0.12.
Take GGCAGAGCUCAACACAUCGUGGCAAAGUGACUGUGGCUAGACUGCG: the self-cleavage stood at 0.97.
In the case of GGCAGAGCUCAACACAUCGCGGCAAAUUGGCUGUGGCUAGACUGCC, the self-cleavage was 0.21.
Under GGCAGAGCUCAACACAUCUUGCGCAAGUGGCUGUGGCUAGACUGCC stands 0.38; under GGCAGAGCUCAACACAUCUUGGCAAAGUGGCCGUGGAUAGGCUGCA, 0.
GGCAGAGCUCAACACAUCGUGGCAAAGGGACUGUGGCUAGACUGCC: the self-cleavage worked out at 0.31.
Regarding GGCAGAGCUCAACACAUGCUGGCAAAGUGGCUGUGGCUAGACUGCC, the self-cleavage came to 0.43.
GGCAGAGCUCAACACAUCGUGCCAAAGGGGCUGUGGCUAGACAGCC: the self-cleavage was found to be 0.
For GGCAGAGCUCAACACAGAGUUGCAAAGUGGUGGUGGCUAGACUGCC the value was 0.04; for GGCAGAGCUCAACACAUCGUAGCCAACUGGCUGUGGCUAGACUGAC, 0.16; for GGCAGAGCUCAACACAUCGUGCCAAAGUGGCUGUGGCUAGACGGCC, 0.02.
As to GGCAGAGCUCAACACAGAGUGGUAAAGUGACUGUGGCUAGACUUCC, the self-cleavage came to 0.03.
Under GGCAGAGCUCAACACAGAGUGGCAACGUGGCUGUGGCACGACUGUC stands 0.57; under GGCAGAGCUCAACACAUACUGGCAAAGUGGCUGUGGCUAGACUGCC, 0.81.
Under GGCAGAGCUCAACACAUCUUGGCAAACUGGCUGUGGCUAGACUUCC stands 0.16; under GGCAGAGCUCAACACAUCGUGGCAAAGUCGCUGUGGCUAGACUGCU, 0.77; under GGCAGAGCUCAACACAUCGUGGCAAAGUGGGUGUGGCUAGACUACC, 0.37.
With GGCAGAGCUCAACACAGAGUGGCAAGGAGGCUGUGGCUAGACUGCC, the self-cleavage is 0.02.
Take GGCAGAGCUCAACACAUCGUGGCAAAGUGGCUGUUGCUAGACGGCC: the self-cleavage came to 0.08.
For GGCAGAGCUCAACACAUCGUGGCAAAGUGGCCCUGGCUAAACUGCC the value was 0.04.
For GGCAGAGCUCAACACAUCGUGGCAAAGUGGCUGUCGCUAGAUUGCC the value was 0.03; for GGCAGAGCUCAACACAGAGUGACAAAGAGGAUGUGGCUGGACGGCC, 0.01.
Under GGCAGAGCUCAACACAUCGUGGCAAAGUGGCUGUCGCUAGACUCCC stands 0.01; under GGCAGAGCUCAACACAUCCUGCCAAGGUGGCUGUGGCUAGACUGCC, 0.03; under GGCAGAGCUCAACACAUCGUGGCAAAAUGGCUGUGGCUAGUCUGCC, 0.08.
Regarding GGCAGAGCUCAACACAUCGUAGCAAAGUGGCUGUGGCUAGACUGAC, the self-cleavage was found to be 0.14.
